B1: Caulobacter ParB omega fusion; a variant is named by its letters at X, in order, B8GW30 (parent)
chain: MESVVVGEPGMSEGRRGLGRGLSALLGEVDAAPAQAPGEQLGGSREAPIEILQRNPDQPRRTFREEDLEDLSNSIREKGVLQPILVRPSPDTAGEYQIVAGERAWRAAQRAGLKTVPIMVRELDDLAVLEIGIIENVQRADLNVLEEALSYKVLMEKFERTQENIAQTIGKSXSHVANXMRLLXLPDEVQSYLVSGELTAXHARAIAAAADPVALAKQIIEGGLSVRETEALARKAPNLSAGKSKGGRPPRVKDTDTQALESDLSSVLGLDVSIDHRGSTGTLTITYATLEQLDDLCNRLTRGI

From a collection of fitness landscapes (doi:10.1016/j.celrep.2020.107928) come the findings set out here.

Over roughly 81,000 sequences, “one-hybrid fitness for binding NBS DNA” has its median near -0.1; the highest 2% begin near 0.36. This is one part of the list.

The variants in this experiment derive from B1. Briefly: one-hybrid fitness for binding NBS DNA (the Noc-binding site; scaled: cognate 1, non-cognate 0); higher = stronger binding. As to conditions: with NBS DNA site. The method, boiled down:
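On M9-minus-histidine containing 0.1 mM IPTG and 5 mM 3-AT, E. coli USO cells with a HIS3 reporter, site 19 bp from the promoter, grew 48 hours at 37°C to select Caulobacter ParB libraries randomised at four specificity codons. Plasmids from before and after were Illumina-sequenced, with three replicate libraries pooled and variants under 10 reads left out. Fitness is the log change in variant-to-wild-type read ratio, rescaled against cognate and non-cognate.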
As for WGFP, the “one-hybrid fitness for binding NBS DNA” value is at most 0.2.
Consider QDEN, for which the “one-hybrid fitness for binding NBS DNA” value is at most 0.2.
With VAMM, the “one-hybrid fitness for binding NBS DNA” value was at most 0.2.
With YECS, the “one-hybrid fitness for binding NBS DNA” value was at most 0.2.
As for RFDC, the “one-hybrid fitness for binding NBS DNA” value was at most 0.2.
With HGNL, the “one-hybrid fitness for binding NBS DNA” value is at most 0.2.
The figure for AHET is at most 0.2; for PSNL it is at most 0.2; for DPDS it is at most 0.2.
For RVIP, the “one-hybrid fitness for binding NBS DNA” value was at most 0.2.
To MVLN belongs at most 0.2; to PPGT, at most 0.2; to DFCR, at most 0.2.
To DTVS belongs at most 0.2.
The figure for YSPC is at most 0.2; for VTVY it is at most 0.2; for TWVR it is at most 0.2.
As to FWKS, the “one-hybrid fitness for binding NBS DNA” value was at most 0.2.
With TDMC, the “one-hybrid fitness for binding NBS DNA” value was at most 0.2.
As to AYHT, the “one-hybrid fitness for binding NBS DNA” value is at most 0.2.
For the variant PVAS, the “one-hybrid fitness for binding NBS DNA” value was at most 0.2.
With TGPK, the “one-hybrid fitness for binding NBS DNA” value is at most 0.2.
To EKNG belongs at most 0.2; to NGTC, at most 0.2; to KWKD, at most 0.2.
On to NRKF, for which the “one-hybrid fitness for binding NBS DNA” value is at most 0.2.
To SCTR belongs at most 0.2.
To QQKP belongs 0.336; to TNEV, at most 0.2.
Take FTMR: the “one-hybrid fitness for binding NBS DNA” value was at most 0.2.
To AYSH belongs at most 0.2.
To RWRI belongs at most 0.2; to TTQQ, at most 0.2; to YDSN, at most 0.2.
For the variant RVPH, the “one-hybrid fitness for binding NBS DNA” value was at most 0.2.
The figure for TQLV is at most 0.2; for PMQV it is at most 0.2.
The figure for FTAL is at most 0.2; for IASC it is at most 0.2; for RYVC it is at most 0.2.
The figure for RRQM is 0.273.
As for LIRD, the “one-hybrid fitness for binding NBS DNA” value is at most 0.2.
Regarding KLLY, the “one-hybrid fitness for binding NBS DNA” value is at most 0.2.
The figure for ALLQ is at most 0.2; for TPFW it is at most 0.2.
In the case of VLIK, the “one-hybrid fitness for binding NBS DNA” value was at most 0.2.
The figure for RSSA is at most 0.2; for WPNG it is at most 0.2.
The figure for PDTQ is at most 0.2; for SRWV it is at most 0.2; for GSHR it is at most 0.2.
To WYGS belongs at most 0.2.
In the case of RLQA, the “one-hybrid fitness for binding NBS DNA” value was at most 0.2.
Regarding MRIC, the “one-hybrid fitness for binding NBS DNA” value was at most 0.2.
Take VSAE: the “one-hybrid fitness for binding NBS DNA” value was at most 0.2.
The figure for DAIE is at most 0.2.
The figure for LDKA is at most 0.2; for LNVW it is at most 0.2; for YDRT it is at most 0.2.
Consider LPTM, for which the “one-hybrid fitness for binding NBS DNA” value was at most 0.2.
To RNQM belongs at most 0.2.
Consider MSFR, for which the “one-hybrid fitness for binding NBS DNA” value was at most 0.2.
As to RTVS, the “one-hybrid fitness for binding NBS DNA” value was 0.39.
As for KAHD, the “one-hybrid fitness for binding NBS DNA” value was at most 0.2.
To HMPD belongs at most 0.2; to TSQK, at most 0.2; to NGII, at most 0.2.
To QSEK belongs at most 0.2; to HHYS, at most 0.2; to YWHI, at most 0.2.
The figure for VSCW is at most 0.2; for VTFY it is at most 0.2; for KIWG it is at most 0.2.
As for HLTC, the “one-hybrid fitness for binding NBS DNA” value is at most 0.2.
Consider DRGR, for which the “one-hybrid fitness for binding NBS DNA” value is at most 0.2.
TISA: the “one-hybrid fitness for binding NBS DNA” value is at most 0.2.
In the case of RTIG, the “one-hybrid fitness for binding NBS DNA” value was at most 0.2.
As to RMDC, the “one-hybrid fitness for binding NBS DNA” value was at most 0.2.
To YNKA belongs at most 0.2; to GAWS, at most 0.2; to QVIL, at most 0.2.
To ADRW belongs at most 0.2; to NMRV, at most 0.2; to ASSN, at most 0.2.
The figure for NCKG is at most 0.2; for SLHT it is at most 0.2; for PTSR it is at most 0.2.
For KAAE, the “one-hybrid fitness for binding NBS DNA” value is at most 0.2.
To VSSH belongs at most 0.2.
For NQNV, the “one-hybrid fitness for binding NBS DNA” value is at most 0.2.
For the variant RADG, the “one-hybrid fitness for binding NBS DNA” value is at most 0.2.
For the variant VEGR, the “one-hybrid fitness for binding NBS DNA” value is at most 0.2.
In the case of YSIR, the “one-hybrid fitness for binding NBS DNA” value is at most 0.2.
Consider GGKY, for which the “one-hybrid fitness for binding NBS DNA” value was at most 0.2.
Regarding FFSI, the “one-hybrid fitness for binding NBS DNA” value was at most 0.2.
To YLER belongs at most 0.2; to EHAD, at most 0.2; to RHCF, at most 0.2.
The figure for GSQS is at most 0.2; for PPVN it is at most 0.2.
Regarding KNTF, the “one-hybrid fitness for binding NBS DNA” value was at most 0.2.
The figure for PPLM is at most 0.2; for DTLC it is at most 0.2.
The figure for DSHS is at most 0.2.
Take TSWR: the “one-hybrid fitness for binding NBS DNA” value was at most 0.2.
Turning to GCLL, the “one-hybrid fitness for binding NBS DNA” value is at most 0.2.
To EGSG belongs at most 0.2; to KGYR, at most 0.2.
For FYLG, the “one-hybrid fitness for binding NBS DNA” value was at most 0.2.
As for PSAD, the “one-hybrid fitness for binding NBS DNA” value is at most 0.2.
Turning to ARNN, the “one-hybrid fitness for binding NBS DNA” value was at most 0.2.
The figure for GWLS is at most 0.2; for QTRT it is 0.891.
Regarding LSYT, the “one-hybrid fitness for binding NBS DNA” value was at most 0.2.
As to DKKL, the “one-hybrid fitness for binding NBS DNA” value is at most 0.2.
In the case of TGPN, the “one-hybrid fitness for binding NBS DNA” value is at most 0.2.
The figure for EQYT is at most 0.2; for SRYA it is at most 0.2.
Regarding TTIF, the “one-hybrid fitness for binding NBS DNA” value was at most 0.2.
In the case of FPHP, the “one-hybrid fitness for binding NBS DNA” value was at most 0.2.
As to RCLT, the “one-hybrid fitness for binding NBS DNA” value was 0.436.
Turning to PRWC, the “one-hybrid fitness for binding NBS DNA” value is at most 0.2.
To QKRA belongs 0.539.
As for HKCC, the “one-hybrid fitness for binding NBS DNA” value is at most 0.2.
As for QMDV, the “one-hybrid fitness for binding NBS DNA” value is at most 0.2.
The figure for EKPP is at most 0.2.
To TCVT belongs at most 0.2; to WKMG, at most 0.2.
To YWRG belongs at most 0.2.
Consider QNSE, for which the “one-hybrid fitness for binding NBS DNA” value is at most 0.2.
NGES: the “one-hybrid fitness for binding NBS DNA” value was at most 0.2.
Regarding RFFN, the “one-hybrid fitness for binding NBS DNA” value was at most 0.2.
The figure for HEAR is at most 0.2; for QVWC it is at most 0.2.
TSTP: the “one-hybrid fitness for binding NBS DNA” value is at most 0.2.
The figure for GRGT is at most 0.2.
The figure for CILY is at most 0.2; for KGPV it is at most 0.2.
The figure for YSFR is at most 0.2; for QAKM it is 0.392.
As to RNAC, the “one-hybrid fitness for binding NBS DNA” value is at most 0.2.
To TLTY belongs at most 0.2.
To MTPL belongs at most 0.2.
To RDPT belongs at most 0.2.
For AIYY, the “one-hybrid fitness for binding NBS DNA” value is at most 0.2.
The figure for VWLF is at most 0.2.
The figure for RYKK is at most 0.2; for LRVV it is 0.209.
The figure for TAPA is at most 0.2; for REQS it is at most 0.2.
As to SAAT, the “one-hybrid fitness for binding NBS DNA” value was at most 0.2.
As for CRWF, the “one-hybrid fitness for binding NBS DNA” value was at most 0.2.
Regarding QIYV, the “one-hybrid fitness for binding NBS DNA” value is at most 0.2.
To FAGT belongs at most 0.2; to TEHR, at most 0.2.
Regarding CFQS, the “one-hybrid fitness for binding NBS DNA” value was at most 0.2.
The figure for VTNI is at most 0.2; for VKIY it is at most 0.2.
To KDSF belongs at most 0.2; to ARYG, at most 0.2.
To HCVG belongs at most 0.2; to VPQN, at most 0.2.
As to AMKL, the “one-hybrid fitness for binding NBS DNA” value was at most 0.2.
YLSA: the “one-hybrid fitness for binding NBS DNA” value was at most 0.2.
The figure for KLSF is at most 0.2; for QTEP it is at most 0.2; for MDVR it is at most 0.2.
To DNWE belongs at most 0.2.
QWVR: the “one-hybrid fitness for binding NBS DNA” value came out at 0.259.
To KAKV belongs at most 0.2; to SHTR, at most 0.2; to KTNK, at most 0.2.
For the variant CHPI, the “one-hybrid fitness for binding NBS DNA” value is at most 0.2.
The figure for IWLD is at most 0.2; for QHKK it is 0.416; for WSSD it is at most 0.2.
The figure for ACKG is at most 0.2; for RAHG it is at most 0.2.
The figure for FLSD is at most 0.2; for CMYS it is at most 0.2.
As for SSCH, the “one-hybrid fitness for binding NBS DNA” value was at most 0.2.
To PPND belongs at most 0.2; to PLRW, at most 0.2; to GYAL, at most 0.2.
The figure for MPQR is at most 0.2; for RMTD it is at most 0.2; for SVLK it is at most 0.2.
Consider TQMG, for which the “one-hybrid fitness for binding NBS DNA” value is at most 0.2.
The figure for PHTE is at most 0.2; for YLPI it is at most 0.2; for HSMF it is at most 0.2.
For KRLI, the “one-hybrid fitness for binding NBS DNA” value is at most 0.2.
The figure for WHDG is at most 0.2.
The figure for ESNP is at most 0.2.
For the variant VNHL, the “one-hybrid fitness for binding NBS DNA” value was at most 0.2.
